Test results published in article PMC12136788.
This is one part of the list.

T1: UNK ZnF1-3 (human, UniProt Q9C0B0 31-174)
T1 sequence: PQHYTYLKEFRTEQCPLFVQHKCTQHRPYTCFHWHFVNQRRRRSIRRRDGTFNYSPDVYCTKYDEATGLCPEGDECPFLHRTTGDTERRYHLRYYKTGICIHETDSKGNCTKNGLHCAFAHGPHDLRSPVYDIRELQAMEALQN

B1: chr7:151048522:151048523:+_ENSG00000013374_ENST00000566856|hu_mus|hu_hu_hu_mus_True|8_38 (ssRNA)
RNA: GGGAGUUCUACAGUCCGACGAUCCUGUUUCUUAUUUAUUACGAUCUUGAUGUAAUUUUCUUGAAAUCCGAAAGUUUCAGCUAUUUGACACCUCAGGUCUCUGCCAGUGACAUGCAAGCGGGUCUCCAACAAGUUUUUCUUAUCCAACAGAGGAUUGAGCAUCA
B2: chr5:134191040:134191041:+_ENSG00000181904_ENST00000394976|hu_mus|FALSE|FALSE (ssRNA)
RNA: GGGAGUUCUACAGUCCGACGAUCAAAGGCAGCAGUGCCACAGCCAUAGCCAAGAUCUGCAAGGCGGGACAGAGCUUUAAUGCUACCUGGAGGUCUCCCUGGGCUGACUUUGUAUCCUGCAGCUUUGGUUGUACCCAAAGGUCUCAACAGAGGAUUGAGCAUCA
B3: chr2:151326667:151326668:-_ENSG00000115963_ENST00000263895|hu_mus|FALSE|FALSE (ssRNA)
RNA: GGGAGUUCUACAGUCCGACGAUCUUUAUUUGUCUUAUUUACACACGCCAAGGUGGCGACGUGAAAAAUGUCUCUGACGCUGUUUUCUGACUGUAAAGCUGAGCAUUCUAUGUAAGUGGCUGCUCCGAUCUGCUUGGCCAUAUUCAACAGAGGAUUGAGCAUCA
B4: 111930651_111930927_1848_CDS_ENSMUSG00000021270_ENSMUST00000094361|mouse|control|control (ssRNA)
RNA: GGGAGUUCUACAGUCCGACGAUCAACCACCUUUUCAACCUUCUUCUCCAAAAUAUCUUUCAUAAUUUUGCAGAGGUUCUCAAAUUUUGUCUUUUUCUCUUCCUGUUUCUUCUUUUCCUCUUCAUCUUCUGGAAGUUCCAGUCCCAACAGAGGAUUGAGCAUCA
B5: chr2:117093540:117093541:+_ENSMUSG00000027349_ENSMUST00000028825|mus_hu|FALSE|FALSE (ssRNA)
RNA: GGGAGUUCUACAGUCCGACGAUCCAUUGUAAUCGUUGUCUUGGGUGACAAAGCAUAACGCUUAGGCUGAUAAAUUCUUGCUAUAUCAUCUGUUUUUACCUUUGCUCUAUCAGACCAUCCAAAGGACUGUACAGUCACAUCUAACAACAGAGGAUUGAGCAUCA
B6: chr17:38556828:38556829:-_ENSG00000131747_ENST00000423485|hu_hu|FALSE|FALSE (ssRNA)
RNA: GGGAGUUCUACAGUCCGACGAUCGGUCCAUGUUCUGACGGGAAGCUCUGAGAUUUCAAUGGUUGUAGAAUUAAGAAUAGCUACUUCACCACUAAUCACAUAUUGAUUUGGAGCCAGUUCUUCAAUAGUACCCUUGAAGUUCUUCAACAGAGGAUUGAGCAUCA
B7: chr7:91259230:91259231:-_ENSMUSG00000038459_ENSMUST00000117085|mus_hu|FALSE|FALSE (ssRNA)
RNA: GGGAGUUCUACAGUCCGACGAUCCCCUUCAACCCAAAGGGGCUCCACGGCUCGGGGACAGCGCUCGUACAUCGCUAGGCCAUGGGAGAAAUCGAUGACCUCAUCCUCUGUACCAUGAAUGACCAACACAGGAGAGGUGACUUUCAACAGAGGAUUGAGCAUCA
B8: 35570361_35576005_1032_CDS_ENSG00000197056_ENST00000373330|human|control|control (ssRNA)
RNA: GGGAGUUCUACAGUCCGACGAUCAUUAAUAGAGCAGAAAAGCUCUGUCUUCCCCAAAUCACUCGUAGUCUCAAUCAUUUCAUCUGAGGGCUUCAAUGGUUUGCAAGGAACAGAUAUAAGUGGUUUGGCAGGUUUCUGCUUAUACAACAGAGGAUUGAGCAUCA
B9: chr16:23446027:23446028:-_ENSG00000168434_ENST00000307149|hu_hu|FALSE|FALSE (ssRNA)
RNA: GGGAGUUCUACAGUCCGACGAUCGUAGUAGGCCAGGAGCUGGGGCAUCCGGUCAAUUUCAGUAAACACCUUCACAAACACUUUGGACUGAUCUACAGCCUGAGAGGUGAAUGCCGCUACAAUCUGUGGACUGGCUAGGGCCUCCAACAGAGGAUUGAGCAUCA
B10: 87534184_87534304_1713_3pUTR_ENSMUSG00000037104_ENSMUST00000041369|mouse|control|control (ssRNA)
RNA: GGGAGUUCUACAGUCCGACGAUCGGGUCAUGGGCAUCGAAGCUGAAGUUGUGGUUCCACUGCUCGAUCCGGGCGUGCAGAGACCUGUUGUAGCGGCGGAAGCUCACAGAGAAGAGGUAGUCCUCCUGUGCAGAGUCCCUGAGCCAACAGAGGAUUGAGCAUCA
B11: chr6:65046092:65046093:+_ENSMUSG00000029920_ENSMUST00000031984|mus_hu|FALSE|FALSE (ssRNA)
RNA: GGGAGUUCUACAGUCCGACGAUCAAGGUGCUGGUAGCGAAUGGAGCCCAUAUUCUUCAGCAUAUGGCCCUCAUCAAAAAUUGCGUAAUUAAGUUUCAGCCGUCGAAACAGACUACGGUCAUCAGAACUGCUGAUCGCACAGUUCAACAGAGGAUUGAGCAUCA
B12: chr11:46405157:46405158:+_ENSG00000110492_ENST00000395566|hu_hu|hu_hu_hu_mus_False|8_18 (ssRNA)
RNA: GGGAGUUCUACAGUCCGACGAUCCCCUCCCCACUUUGGGCACUUGGUGUGGGCGUGAGAGGACAGGCGUGAUUGACAGAGCUGACAGGAAGACAAAAGGCACUGGUGGGUUAUAUCUCGGGCCUGGGAGAGGGAGGGGCUCCGCAACAGAGGAUUGAGCAUCA
B13: chr1:130485734:130485735:-_ENSMUSG00000045382_ENSMUST00000052172|mus_mus|mus_mus_mus_hu_False|88_88 (ssRNA)
RNA: GGGAGUUCUACAGUCCGACGAUCGAUGAAGGAGUCGAUGCUGAUCCCCACAUAAUAAGGCAGCCAACAGGCGAAGAAAGCCAGGAUGAGGAUGACUGUGGUCUUGAGGGCCUUGCGCUUCUGGUGGCCCUUGGAGUGUGACAGCAACAGAGGAUUGAGCAUCA
B14: 52312331_52312451_268_5pUTR_ENSG00000164091_ENST00000296490|human|control|control (ssRNA)
RNA: GGGAGUUCUACAGUCCGACGAUCCCUUAGCGACGCGGAAGCUCCGCAACACGCUGUCGGUCAGCUUCAUGGCGGCGGCUGGGGAAGGCAGCGGCGGCGCAGGGCCGGGGCGGGGCCCGGCGGCGAGCGGGCGGGCUGCCGAGGCAACAGAGGAUUGAGCAUCA
B15: chr2:198351390:198351391:-_ENSG00000144381_ENST00000345042|hu_hu|hu_hu_hu_mus_False|8_88 (ssRNA)
RNA: GGGAGUUCUACAGUCCGACGAUCUCAUUCCCACCCUCCACAGAAAGGCUGCUUAACAACUCUCAUGUGGUGACACAGCGCUACAGUCCUGAUGCUCACAGAACAGUAGAGAUGCCUCAGUGAUUUAUUAAGUUGAAAGGACACCAACAGAGGAUUGAGCAUCA
B16: chr2:55199926:55199927:-_ENSG00000115310_ENST00000317610|hu_mus|FALSE|FALSE (ssRNA)
RNA: GGGAGUUCUACAGUCCGACGAUCCAUUUCAGAAAAAUCUGCAUCAGUUUUACACCAACCAAACACAGUACACUGUGAAAAGGGUUGUUUUUCCUGCCCCCAAAUCUACCUUCUUUGCAACUUUCCAAAUACAGCCAGACUACCCAACAGAGGAUUGAGCAUCA
B17: chr11:115359251:115359252:-_ENSMUSG00000020737_ENSMUST00000021083|mus_hu|motif|central (ssRNA)
RNA: GGGAGUUCUACAGUCCGACGAUCUAUUUCUUCUUAAAAACACAGUACUAAGUGUCACAAAGCUUUCCCUCCAAUCGGCGGCGGGAAAACACUCAUGCCAUGGCCCACAGACCCAAGAGUCAAGGACAGAGAGAAACCUGUUCUCAACAGAGGAUUGAGCAUCA
B18: chr1:244870462:244870463:+_ENSG00000121644_ENST00000302550|hu_hu|FALSE|FALSE (ssRNA)
RNA: GGGAGUUCUACAGUCCGACGAUCAUAGCAAACAAUCCAAUCUAAAAGUUUAAAUAAAUGUCAAUAAUUUUAAAACUAACUAUAUUUUAUAUGUAUAUAAAGCUGAAGUCACUGCCUUGGAUAGUGUUACACUGCAUCCAAUAUCAACAGAGGAUUGAGCAUCA
B19: chr5:31552970:31552971:+_ENSG00000082213_ENST00000325366|hu_hu|motif|central (ssRNA)
RNA: GGGAGUUCUACAGUCCGACGAUCCAUGUACAAAUAAGUUAAUUAAGGGCCUGUUACUAAACCAAGAUACAACAGGAGCCGGAUGUUUUGUUUGUUUCAAGAUGGAGGAGACUCUGCUGCAUACACUUGGAGGUCUAGAUUUCCCAACAGAGGAUUGAGCAUCA
B20: chr5:128440902:128440903:+_ENSG00000066583_ENST00000173527|hu_mus|hu_hu_hu_mus_True|48_98 (ssRNA)
RNA: GGGAGUUCUACAGUCCGACGAUCUUGAACGGUGCUGCCAAGACCUUUGGGGUAUUGUUCCGUUAUGAUAACUGGAAUCCCUAAGAUCCGGGCCCCUUGCAACAGUCUCUGUCCCACACUAAUGAUGUCCCCAAAGUAUUUGAUCAACAGAGGAUUGAGCAUCA
B21: chr2:32989838:32989839:-_ENSMUSG00000038831_ENSMUST00000042615|mus_hu|motif|central (ssRNA)
RNA: GGGAGUUCUACAGUCCGACGAUCUGUUGAGCCUUUUGAUGCCUUUCUAGAGGAAUCUAUGCACAGGAUUUAUACUCAGGACGGGGAGAGAGGCAAAGUCUUGCCUAAGGAGAUAGGUGUGGUGGGGACUGUUUGUUGAGUGGUCAACAGAGGAUUGAGCAUCA
B22: chr22:19442333:19442334:-_ENSG00000070010_ENST00000399523|hu_mus|FALSE|FALSE (ssRNA)
RNA: GGGAGUUCUACAGUCCGACGAUCAACCUUUUUGACCAAUGGACGUGAAUUUCUGAUGAAAGUGAUCUUACCAAGCUUAAAUUCGUAAUUAGGAAUUCCUCUUUUGAUGUCUCCAGGCUUGAUUGGGGAGGGACUGGGCUCAACCAACAGAGGAUUGAGCAUCA

Target: T1, UNK ZnF1-3
Test: nsRBNS (natural sequence RNA bind-n-seq); RBNS binding buffer (assumed for nsRBNS): 25 mM Tris pH 7.5, 150 mM KCl, 3 mM MgCl2, 0.01% Triton X-100, 500 ug/ml BSA, 20 U/ml SUPERase-In, 4 C; UNK is unkempt and MSI1 is Musashi-1; names of the RNAs are library labels; protein concentration not given here; high values mean tight binding

Binder	binding signal
B1	0.713 enrichment R
B2	1.22 enrichment R
B3	0.639 enrichment R
B4	0.489 enrichment R
B5	0.587 enrichment R
B6	1.12 enrichment R
B7	1.18 enrichment R
B8	0.791 enrichment R
B9	0.699 enrichment R
B10	0.884 enrichment R
B11	0.599 enrichment R
B12	3.08 enrichment R
B13	1.22 enrichment R
B14	0.587 enrichment R
B15	1.27 enrichment R
B16	1.34 enrichment R
B17	0.738 enrichment R
B18	2.37 enrichment R
B19	1.61 enrichment R
B20	0.639 enrichment R
B21	1.2 enrichment R
B22	1.36 enrichment R
